# According to PubChem BioAssay AID2147 (National Center for Advancing Translational Sciences (NCATS), 2009):
# Screen size: about 230,000 compounds; about 3,600 (1.6%) were called active. The inconclusive results got no clear call from the source; some entries with a clear call stand among them for comparison. Calls come from the whole dose curve; as a rule, active = well fitted inhibition curve with a large enough effect (not every such curve was filed as active); inconclusive = small, poorly fitted or top-dose-only effect, or another doubt; inactive = no such curve, though single readings can be large or run the other way. Potencies beside an inconclusive call are fits to weak or partial responses and may not hold up.
# Target: Lysine-specific demethylase 4E (Homo sapiens) (UniProt B2RXH2)
# Chain of UniProt B2RXH2 (B2RXH2 whole entry, looked up, the tested form may be a part): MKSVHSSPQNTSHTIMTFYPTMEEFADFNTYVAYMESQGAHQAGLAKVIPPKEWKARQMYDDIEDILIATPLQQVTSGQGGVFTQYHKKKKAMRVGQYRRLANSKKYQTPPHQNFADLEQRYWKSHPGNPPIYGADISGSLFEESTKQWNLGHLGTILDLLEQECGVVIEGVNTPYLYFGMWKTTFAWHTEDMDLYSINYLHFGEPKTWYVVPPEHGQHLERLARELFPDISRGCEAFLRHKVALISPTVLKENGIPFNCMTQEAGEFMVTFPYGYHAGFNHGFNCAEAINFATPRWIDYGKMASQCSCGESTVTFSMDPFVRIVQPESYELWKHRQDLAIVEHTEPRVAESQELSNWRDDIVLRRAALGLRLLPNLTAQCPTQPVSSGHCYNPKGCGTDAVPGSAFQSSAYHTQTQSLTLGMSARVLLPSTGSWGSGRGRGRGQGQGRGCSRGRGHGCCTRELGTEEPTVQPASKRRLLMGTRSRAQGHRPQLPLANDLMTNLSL
# Assay: qHTS Assay for Inhibitors of Human Jumonji Domain Containing 2E (JMJD2E)
# Details: JMJD2E catalytic domain, FDH-coupled NADH fluorescence (FDH is formaldehyde dehydrogenase); series mostly up to 57.1 µM; activity change, negative = inhibition: at the top concentration
# Note: nearly all actives have a fitted effect of over 50% in size.
# Potency is the fitted concentration of half-maximal effect; tags give direction and shape of the fitted curve.
# 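Throughout, for activity change, negative = inhibition: 0% = wells with enzyme and -100% = buffer wells without enzyme.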
SMILES,Potency,"activity change, negative = inhibition"
O=C(NC(NC(=S)Nc1ccccc1C(=O)O)C(Cl)(Cl)Cl)c1ccccc1 (stereo not given),"inconclusive: 31.6 µM [inhibitor, partial curve]",
COc1ccccc1NS(=O)(=O)c1cc(NC(=O)c2ccc3c(c2)OCCO3)ccc1C,"inconclusive: 25.1 µM [inhibitor, single point]",
Cn1c(SCC(N)=O)nnc1C1CCN(C(=O)NC2CCCCC2)CC1,"inconclusive: 39.8 µM [inhibitor, single point]",
Oc1ccc2ccccc2c1C=NCc1ccccc1,"inconclusive: 39.8 µM [inhibitor, single point]",
C=CCn1cnc2c(c1=O)c1nc3ccccc3nc1n2Cc1ccccc1,"inconclusive: 3.98 µM [inhibitor, full curve]",
C[n+]1cn(CC(O)COCc2ccccc2)c2ccccc21 (stereo not given),,inactive: 4.96%
O=C1C(Cl)=C(N2CCOCC2)C(=O)N1c1ccccc1Cl,,inactive: 2.94%
O=C(Nc1ccccc1)c1snc2c(=O)[nH]cnc12,,inactive: 3.62%
COc1ccc(/C(O)=C2/C(=O)C(=O)N(CCN(C)C)C2c2ccccn2)cc1OC (stereo not given),"inconclusive: 35.5 µM [inhibitor, single point]",
c1ccn2c(Cc3nnc4ccccn34)nnc2c1,"inconclusive: 39.8 µM [inhibitor, single point]",
Cc1ccc(-c2c(C)c(-c3ccc(F)cc3)nc(N)c2C#N)o1,"inconclusive: 25.1 µM [inhibitor, partial curve]",
Nc1c(C(=O)c2ccccc2)sc2nsc(SCCN3CCOCC3)c12,,inactive: -2.38%
CCN1C(=O)/C(=C\c2nc3ccccc3c(=O)n2-c2ccccc2)c2ccccc21,"inconclusive: 39.8 µM [inhibitor, single point]",
O=C(CN1C(=O)NC2(CCOc3ccccc32)C1=O)Nc1cccc(Cl)c1 (stereo not given),"inconclusive: 39.8 µM [inhibitor, single point]",
Cc1cc(C)nc(NCCC(=O)O)n1,"inconclusive: 25.1 µM [inhibitor, partial curve]",
O=c1[nH]c2cc3c(cc2cc1C(c1nnnn1C1CCCC1)N1CCSCC1)OCCO3 (stereo not given),"inconclusive: 10 µM [inhibitor, partial curve]",
CCCCOc1ccc(-c2nnc(-c3ccncc3)o2)cc1,"inconclusive: 31.6 µM [inhibitor, partial curve]",
N#Cc1c(NC(=O)CSc2nnc(-c3ccncc3)n2CC2CCCO2)sc2c1CCCC2 (stereo not given),,inactive: 2.26%
O=C(NCC1CCCO1)c1ccc(COc2ccc(Br)cc2)cc1 (stereo not given),,inactive: -6.29%
Cc1ccc2nc(-c3ccc(-c4ccccn4)s3)cn2c1,"inconclusive: 28.2 µM [inhibitor, partial curve]",
